From PubChem BioAssay AID1745845 (National Center for Advancing Translational Sciences (NCATS), 2022)
Where “and” joins values, the source holds several entries; their conditions need not be identical. Identical values can stand only once. Hit rate of the full screen: of about 360,000 compounds, about 2,600 (0.72%) were called active. This list was built around the results that the source calls inconclusive (neither active nor inactive); the mix of calls is not that of the screen. The call rests on the fitted dose curve; in most records, active means well fitted inhibition curve with a large enough effect; inconclusive means small, poorly fitted or top-dose-only effect; inactive means no such curve, though single readings can be large or run the other way. A potency beside an inconclusive call is a rough fit, not a confirmed value.

Assay: Primary qHTS for Inhibitors of ATXN expression; further: nearly all actives have a fitted effect of over 55% in size
Settings: HEK-293 ATXN2-luciferase reporter, luminescence, 24 h; activity change, negative = inhibition: at 57 µM (top of the series)
Procedure, shortened: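 qHTS (up to 57 uM final) was run with 24 h compound exposure of reporter cells at 37 °C. Each well was multiplexed: SteadyGlo luminescence measured ATXN2-luciferase expression after a fluorogenic Gly-Phe-AFC viability readout (25 uM final).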
On the % scale 0 is the no-effect control and ±100 the full control effect; potency means the concentration at half of the fitted maximal effect; tags describe the fitted curve by direction and shape.

Structure (SMILES)	activity change, negative = inhibition	Potency
O=C(NC(=S)Nc1cccc(Cl)c1N1CCCC1)c1ccc(-c2cccc([N+](=O)[O-])c2)o1	inactive: 1.88%	–
CN(Cc1cc(Cl)cc(Cl)c1)CC(C(=O)c1ccccc1)c1ccccc1 (configuration not stated)	–	inconclusive: 39.8 µM [inhibitor, single point]
c1ccc(CNc2nc(-c3cccs3)nc3ccccc23)nc1	inactive: -18.4%	–
COc1ccc(/C=N/Nc2nncn2N)cc1Br	inactive: -18.8%	–
Cc1cc(=O)[nH]c(N/N=C/c2c(F)c(F)c(F)c(F)c2F)n1	inactive: -21.3%	–
OC1CC2CCC(C1)N2CCCN1c2ccccc2Sc2ccc(Cl)cc21 (configuration not stated)	–	active: 11.2 µM
CCOC(=O)c1c(C)[nH]c(C(=O)N/N=C/c2cc([N+](=O)[O-])ccc2O)c1C	–	inconclusive: 39.8 µM [inhibitor, single point]
COc1cc(/C=C2\Oc3ccc(C#Cc4ccc(O)cc4)cc3C2=O)cc(OC)c1	–	inconclusive: 7.94 µM [inhibitor, partial curve, poor fit]
O=C1/C(=C/c2cccc(F)c2)Oc2cc(O)ccc21	inactive: -14%	–
CC(C)c1ccc(NC(=O)CN2C(=O)NC3(CCCCCCC3)C2=O)cc1	–	inconclusive: 11.2 µM [inhibitor, partial curve, poor fit]
O=[N+]([O-])c1cc(O)c2ncccc2c1	–	active: 5.01 µM
CCOC(=O)C(C#N)(Cc1ccc2ccccc2n1)Cc1ccc2ccccc2n1	–	inconclusive: 31.6 µM [inhibitor, single point]
CCOC1=C(C#N)CC2(CC1)c1ccccc1-c1ccccc12	–	inconclusive: 25.1 µM [inhibitor, single point]
Cc1cc(N2CCN(Cc3cn(C)nc3-c3cccc(Cl)c3)CC2)cc(C)n1	–	inconclusive: 16.8 µM [inhibitor, partial curve, poor fit]
O=C(CSc1nnc(CNc2ccccc2)o1)c1ccc2c(c1)OCCO2	inactive: 46.5%	–
O=C(CSc1cccc2cccnc12)N1CCCC1	–	inconclusive: 28.2 µM [inhibitor, single point]
C[C@@H](Oc1ccc2[nH]nc(C=Cc3cnn(CCO)c3)c2c1)c1c(Cl)cncc1Cl	–	active: 21.7 µM
CCn1ccc2c(OCC(=O)Nc3ccccc3C(F)(F)F)cccc2c1=O	–	inconclusive: 28.2 µM [inhibitor, single point]
O=C(NC1(C(F)(F)F)NC(=O)N(CCc2ccccc2)C1=O)c1ccc(Cl)cc1 (configuration not stated)	–	inconclusive: 39.8 µM [inhibitor, single point]
COc1cc(CNC(=O)c2cccc(COc3ccc(Cl)cc3)c2)cc(OC)c1	–	inconclusive: 17.8 µM [inhibitor, single point]
COc1ccc(NC(=O)c2oc3ccc(S(=O)(=O)N4CCOCC4)cc3c2C)cc1	–	inconclusive: 31.6 µM [inhibitor, partial curve, poor fit]

Structure (SMILES)	activity change, negative = inhibition	Potency
CC[C@@]1([C@@H]2O[C@@H]([C@H]3O[C@@](O)(CO)[C@H](C)C[C@H]3C)C[C@H]2C)CC[C@H]([C@]2(C)CC[C@]3(C[C@H](O)[C@@H](C)[C@@H]([C@@H](C)[C@@H](OC)[C@H](C)C(=O)O)O3)O2)O1	–	inconclusive: 0.841 µM [inhibitor, full curve]
CCc1ccc(NC(=O)COC(=O)C2(c3ccc(Cl)cc3)CCCC2)cc1	–	inconclusive: 25.1 µM [inhibitor, single point]
O=C(COc1ccc(Cl)cc1Cl)N(c1ccccn1)C1CCCCC1	inactive: 9.9%	–
COc1ccc(-c2nnc(NC(=O)c3ccccc3C)o2)cc1	–	inconclusive: 20 µM [inhibitor, partial curve, poor fit]
CCN1CCN(Cc2ccc(NC(=O)c3cc(NC(=O)c4cnnc5ccccc45)cc(OC)c3)cc2C(F)(F)F)CC1	–	inconclusive: 35.5 µM [inhibitor, single point] and inconclusive: 39.8 µM [inhibitor, single point]
O=C1N(c2cccc(Cl)c2)C(c2ccccc2)N2CCCN12 (configuration not stated)	inactive: 2.24%	–
COc1ccc(Cn2c(C(=O)O)c(CNCCc3cc(OC)ccc3OC)c3ccc(C)cc32)cc1	–	inconclusive: 39.8 µM [inhibitor, single point]
COc1cc(CNC(C)(C)CO)cc(Br)c1OCc1ccc(Cl)cc1	inactive: -10.1%	–
CCOC(=O)c1c2c3c(cccc3n(C)c1=O)C(=O)c1ccccc1-2	inactive: -15.8%	–
CCC/C=C/c1ccc(CN2C(C(C)C)C(=O)N(Cc3cn(CC4CCCCC4)nn3)CCS2(=O)=O)cc1 (configuration not stated)	–	inconclusive: 39.8 µM [inhibitor, single point]
CCOc1ccc(-c2nc(CN(Cc3ccccc3)C[C@@H]3CCC(=O)N3)c(C)o2)cc1	–	inconclusive: 39.8 µM [inhibitor, partial curve, poor fit]
COCCNc1nc(NCCOc2ccccc2)c2sc(-c3ccccc3)cc2n1	–	inconclusive: 39.8 µM [inhibitor, single point]
CCOc1cc(N2CCC(O)CC2)ccc1Nc1ncc2c(n1)N(C)c1ccccc1C(=O)N2C	inactive: 64%	–
CC(C)(C)NC(=O)NC(=O)CN1CCN(S(=O)(=O)c2ccccc2)CC1	inactive: -17.3%	–
COC(=O)c1cn(NC(=O)c2cccc(OC)c2)c(=O)c2ccccc12	inactive: 19.1%	–
Cc1cccc(C)c1OCC(O)Cn1c2ccccc2c2ccccc21 (configuration not stated)	–	inconclusive: 39.8 µM [inhibitor, single point]
CCn1cc(C(=O)N2CCN(c3cccc(C)c3C)CC2)c2cc(OC)c(OC)cc2c1=O	–	inconclusive: 39.8 µM [inhibitor, single point]
CC(=O)n1c(Cl)c(NC(=O)CCl)c2ccccc21	–	inconclusive: 39.8 µM [inhibitor, single point]
O=C(CCS(=O)(=O)c1ccccc1)N(CCCN1CCOCC1)c1nc2ccc(F)cc2s1	–	inconclusive: 39.8 µM [inhibitor, single point]
O=C(CC(=O)c1ccncc1)c1ccccc1	inactive: 3.93%	–
CCOC(=O)c1c(C)nn(-c2ccc(NC(=O)/C=C/C(=O)O)cc2)c1C	–	inconclusive: 2.24 µM [inhibitor, full curve, poor fit]
